# Reference: PMC7819943, “Rice protein-binding microarrays: a tool to detect cis-acting elements near promoter regions in rice”
# The other results are listed elsewhere or left out.
# Target: T1, OsWOX13 (Oryza sativa, UniProt Q5QMM3 1-267)
# T1 sequence: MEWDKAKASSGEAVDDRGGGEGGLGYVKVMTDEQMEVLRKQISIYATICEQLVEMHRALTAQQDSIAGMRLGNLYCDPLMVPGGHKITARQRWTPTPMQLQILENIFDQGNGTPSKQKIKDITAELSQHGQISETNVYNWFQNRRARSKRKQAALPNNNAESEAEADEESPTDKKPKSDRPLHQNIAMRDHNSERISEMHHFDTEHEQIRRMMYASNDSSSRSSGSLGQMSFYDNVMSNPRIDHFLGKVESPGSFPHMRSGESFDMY
# Test: protein-binding microarray (RPBM); PBS, 2% BSA, 51.3 ng/ul salmon testes DNA, 50 uM zinc acetate, 200 nM TF, 25 C, 1 h; high values mean tight binding
# Conditions: protein: recombinant; tags: N-terminal polyhistidine and DsRed monomer fusion (pET32a); label: CyDye5-dUTP incorporated in the synthesized complementary strand; 3' TTTTT single-stranded linker to array surface; dsDNA, one strand shown
# In short: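 Transcription factors, each fused N-terminally to a polyhistidine tag and DsRed, were expressed in E. coli BL21-CodonPlus and purified on Ni–NTA. A custom Agilent array was made double-stranded by primer extension with Cy5-dUTP and blocked with 2% BSA. It was incubated with 200 nM protein in PBS, 2% BSA, salmon testes DNA and 50 µM zinc acetate at 25 °C for 1 h, then washed. The binding signal is per-feature fluorescence intensity (arbitrary units) read on an Axon 4000B scanner.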
row,Sequence,binding signal
1,AATGTGGTGGTGGTGGTGGTGAACGGAGGAGGGAGGGAGCCGGAGTCACCTAGTGCAG,3760 fluorescence intensity (a.u.)
2,CGATGATTGTTAGTATACACTATATGTATGGTGTTTATCCCGGAGTCACCTAGTGCAG,40600 fluorescence intensity (a.u.)
3,TGGTCAATTACACTGGCTAATTAGCACGCTAGCTTAACACCGGAGTCACCTAGTGCAG,48600 fluorescence intensity (a.u.)
4,CTATAAATGCTGTGACTGATGATAAGTCCAGTGCATTCCACGGAGTCACCTAGTGCAG,6700 fluorescence intensity (a.u.)
5,GTGAAATTTAATGGGAGATAATTATGATCGATTGAGATGACGGAGTCACCTAGTGCAG,25900 fluorescence intensity (a.u.)
6,ATGATTTGCTCATGCTTTAGGAGGCGCGTTACATGGTGGGCGGAGTCACCTAGTGCAG,15800 fluorescence intensity (a.u.)
7,TATATAATCAATTTAATAGCCAATTCATATATTAGTTACCCGGAGTCACCTAGTGCAG,10800 fluorescence intensity (a.u.)
8,GATGGATTAATTAGGCTCAAAAGATTCATCTAACGGTTTTCGGAGTCACCTAGTGCAG,6970 fluorescence intensity (a.u.)
9,AATCCCATGATTAGTGCTGCATGATTCCATATAAACTTTTCGGAGTCACCTAGTGCAG,20000 fluorescence intensity (a.u.)
10,GGTCTGAAAATTATAAATTATCGCTAAAATTTATGTCGGGCGGAGTCACCTAGTGCAG,22500 fluorescence intensity (a.u.)
11,ACTATTAACTCTTGATTAAGGAACATGGTAAAATTTATACCGGAGTCACCTAGTGCAG,4290 fluorescence intensity (a.u.)
12,ACATTAACTAAATGGTGGAGGGCAGGGGTTCGTCTTTCTTCGGAGTCACCTAGTGCAG,8750 fluorescence intensity (a.u.)
13,GCTTAATTTTAATTTCAAACTGAACGCTTGAATACTCAACCGGAGTCACCTAGTGCAG,51100 fluorescence intensity (a.u.)
14,GCCAGTAATTACCACTGAGAGATACTCGCTCCTTGCGATTCGGAGTCACCTAGTGCAG,20900 fluorescence intensity (a.u.)
15,TTCTAATTAGTGTAAAACATGTGATGTGACCCCATCCAAACGGAGTCACCTAGTGCAG,16500 fluorescence intensity (a.u.)
16,CTTGCATGTGAATTGATTGTACCCATTGGATTTTGTTTTCCGGAGTCACCTAGTGCAG,5800 fluorescence intensity (a.u.)
17,GAGTAAATTAAGCAAGTGGCACCACCCTCCATTTCGCTCTCGGAGTCACCTAGTGCAG,5490 fluorescence intensity (a.u.)
18,GCTGTGCAAACACATAATTGGCAGACATAAAGGATATGACCGGAGTCACCTAGTGCAG,4700 fluorescence intensity (a.u.)
19,CTACAAATTTACTCTGACAATGTGTTTATAAAATGATTGCCGGAGTCACCTAGTGCAG,14400 fluorescence intensity (a.u.)
20,AGTTGATTTATAAGCCTAAATAAATAGGGCCTAAAATTGCCGGAGTCACCTAGTGCAG,37000 fluorescence intensity (a.u.)
21,ATGAATTGACTAAGATATTAAGCAGTATATAAACAACTAACGGAGTCACCTAGTGCAG,5440 fluorescence intensity (a.u.)
22,TTTAATTACCTCAGTTGGCTGCAAATTGAGAAGAACTTGTCGGAGTCACCTAGTGCAG,16800 fluorescence intensity (a.u.)
23,GCAAATTGAACCAAAATTGATAGTTGACTAGTTGAGGGAGCGGAGTCACCTAGTGCAG,38600 fluorescence intensity (a.u.)
24,GATAATTAGAGAGATTCTGAGAGGAGAGACTAACGGAAGCCGGAGTCACCTAGTGCAG,18900 fluorescence intensity (a.u.)
25,CTAAACTAAATAACTGGTAGCGTTTGCTTAGTTACGTATCCGGAGTCACCTAGTGCAG,17200 fluorescence intensity (a.u.)
26,TTATAGTGATTGCTGAGAATGTAAATAACATATTCAGCTACGGAGTCACCTAGTGCAG,18100 fluorescence intensity (a.u.)
27,ACGAAGTCATCACTGCTACCAATCAAAACCTACAAACAGCCGGAGTCACCTAGTGCAG,4780 fluorescence intensity (a.u.)

row,Sequence,binding signal
1,GAGATAAGAAATTATTATCATAATTTATGATGAACGGTTGCGGAGTCACCTAGTGCAG,7300 fluorescence intensity (a.u.)
2,CCCATGATTCCGGGACCAATCACAGCTCGACAGCATACTGCGGAGTCACCTAGTGCAG,9810 fluorescence intensity (a.u.)
3,GTCCATTATACCAAATTACCAACCGCACATAAATTATCCTCGGAGTCACCTAGTGCAG,4940 fluorescence intensity (a.u.)
4,AGGAGGCGGGGCGGGGCGGCGGCGGCGGCGGCGGCGCCCGCGGAGTCACCTAGTGCAG,5340 fluorescence intensity (a.u.)
5,CTAAGTAATTAAAGTTTAGTTATAAGTTTTAGAAGAAGCTCGGAGTCACCTAGTGCAG,11300 fluorescence intensity (a.u.)
6,GTACAAATTAGATTGGACCTATATATGAGGGAGCCAATGTCGGAGTCACCTAGTGCAG,45700 fluorescence intensity (a.u.)
7,CTTGATTGGGGTCTCCTTCCTTTTATTAAAAGAAAGCTGACGGAGTCACCTAGTGCAG,37000 fluorescence intensity (a.u.)
8,TGTAATCTTAAATTACTTGCGTAAACAAAAGGATTTAATTCGGAGTCACCTAGTGCAG,4640 fluorescence intensity (a.u.)
9,TAAATTAACTTAATCCAATTAGGAGCAGGTACATTGTGTGCGGAGTCACCTAGTGCAG,31200 fluorescence intensity (a.u.)
10,AATAATCACAAATGCCAATTGTTCATCACAGAATAAGAATCGGAGTCACCTAGTGCAG,3270 fluorescence intensity (a.u.)
11,TACTAACTAATTAATGTGATCCTGCCAGCAGTACACGTCCCGGAGTCACCTAGTGCAG,35300 fluorescence intensity (a.u.)
12,TCCACTGATTTAACGGAAAATCAATGCGACTCAAGAGTGTCGGAGTCACCTAGTGCAG,31300 fluorescence intensity (a.u.)
13,ATTGTACACAACAAATTGAAATTTTCAATTCAACTTTTAACGGAGTCACCTAGTGCAG,6860 fluorescence intensity (a.u.)
14,ATATATATATATATATATATATATATATATATAAAATCACCGGAGTCACCTAGTGCAG,5780 fluorescence intensity (a.u.)
15,CAAAATTTGACTCATAAGCTTTAAGCGAAAAGATGAGCCGCGGAGTCACCTAGTGCAG,4220 fluorescence intensity (a.u.)
16,GTCGATAAATTATTCGCGGCACAATTATTTGTGCCCCATTCGGAGTCACCTAGTGCAG,5580 fluorescence intensity (a.u.)
17,CTTTGACAAAACCTGGAGATTGTGGGACGTTAGCACTGGACGGAGTCACCTAGTGCAG,4290 fluorescence intensity (a.u.)
18,CAGGAAAGCCCATCAATTATATCCATTCTTTAAGCCCAATCGGAGTCACCTAGTGCAG,3370 fluorescence intensity (a.u.)
19,TAATAACTGAAATTGAACTCTATATTTAAACTTTAACTCTCGGAGTCACCTAGTGCAG,18400 fluorescence intensity (a.u.)
20,TTAAATTTTAAACAGTTTGATTTTAACTAAAGTTACGTGCCGGAGTCACCTAGTGCAG,29100 fluorescence intensity (a.u.)
21,ACAAACATGGTTTTGATTGATGTATCTCTTCTAGAGACCACGGAGTCACCTAGTGCAG,21600 fluorescence intensity (a.u.)
22,CTTTTATTTGATATTTGATTATACAGGTACAAGGCTGGTACGGAGTCACCTAGTGCAG,16900 fluorescence intensity (a.u.)
23,ACAATTAAAATCATGTTCGAATTGAGTTTCAATTTCACTTCGGAGTCACCTAGTGCAG,6040 fluorescence intensity (a.u.)
24,ATTAATAATTAAAGATTTTAAAGTTTGACCTTACTCTTGTCGGAGTCACCTAGTGCAG,15300 fluorescence intensity (a.u.)
25,TAATATAATTATTTCTTACTTTCACAAACTCCGATGTAATCGGAGTCACCTAGTGCAG,3480 fluorescence intensity (a.u.)
26,CTGTGTAAACATAATTTATGAATATCATAGTGGACGTCGTCGGAGTCACCTAGTGCAG,7050 fluorescence intensity (a.u.)
27,AAATACTCATAATAATTGCTAGTGAATGATGATGTGGCACCGGAGTCACCTAGTGCAG,6790 fluorescence intensity (a.u.)
